Test results reported in the RNAGym collection of RNA variant scans (doi:10.7554/elife.90254).
Read counts are not given, so values of variants with three or more changes are uncertain.

B1: LINE1-full (parent)
chain: UACGUAGGUGGUUUUCCCCUGAUAGUGCUAAGGGGGCCUGGAAGUUUGGACUGGGCAGAGCUCAACACAGCGUGGCAAAGUGGCUGUGGCUAGACUGCCUCUCUGGAUUCCUCGUCACUCAGCAGGGCAUCUCUGAGAGAAAUGCC

Variants of: B1
Experiment: self-cleavage, relative activity (ratio to wild type); higher = more cleavage; in vitro, sequencing; the parent is a self-cleaving ribozyme

Row | Variant | self-cleavage
1 | UACGUAGGUGGUUUUCCCCUGAUAGUGCUAAGGGGGCCUGGAAGUUUGGACUGGGCAGGGCUCAACACAGCGUGGCAAAGUGGCUGUGGCUAGACUGCCCCUCUGGGUUCCUCGUCACUCAGCAGGGCAUCUCUGAGAGAAAUGCC | 0.38
2 | UACGUAGGUGGUUUUCCCCUGAUAGUGCUAAGGGGGCCUGGAAGUUUGGACUGGGCAGGGCUCAACACAGCGUGGCAAAGUGGCUGUGGCUAGACUGCCCCUCUGGAUUCCUCGUCACUCAGCAGGGCAUCUCUGAGAGAAAUACC | 0.06
3 | UACGUAGGUGGUUUUCCCCUGAUAGUGCUAAGGGGGCCUGGAAGUUUGGACUGGGCAGGGCUCAACACAGCGUGGCAAAGUGGCUGUGGCUAGACUGCCUCACUGGAUUCCGCGUCACUCAGCAGGGCAUCUCUGAGGGAAAUGCC | 0.57
4 | UACGUAGGUGGUUUUCCCCUGAUAGUGCUAAGGGGGCCUGGAAGUUUGGACUGGGCAGGGCUCAACACAGCGUGGCAAAGUGGCUGUGGCUAGACUGCCUCUCAGGAUUCCUCGUCACUCAGCGGGGCAUCUCUGAGAGAAAUGCC | 0.04
5 | UACGUAGGUGGUUUUCCCCUGAUAGUGCUAAGGGGGCCUGGAAGUUUGGACUGGGCAGGGCUCAACACAGCGUGGCAAAGUGGCUGUGGCUAGACUGCCUCUCUGGAUUCCUCGCCACUCAGCAGGGCACCUCUGAGAGAAAUGCC | 0
6 | UACGUAGGUGGUUUUCCCCUGAUAGUGCUAAGGGGGCCUGGAAGUUUGGACUGGGCAGGGCUCAACACAGCGUGGCAAAGUGGCUGUGGCUAGACUGCCUCUCUGGAUUCCUCGUCACACAGCAGGGCAUCUCUGAGGGAAAUGCC | 0.06
7 | UACGUAGGUGGUUUUCCCCUGAUAGUGCUAAGGGGGCCUGGAAGUUUGGACUGGGCAGGGCUCAACACAGCGUGGCAAAGUGGCUGUGGCUAGACUGCCUCUCUGGAUUCCUCGUCACCCAGCAGGGCAUCUCUGAGAGAAGUGCC | 0.26
8 | UACGUAGGUGGUUUUCCCCUGAUAGUGCUAAGGGGGCCUGGAAGUUUGGACUGGGCAGUGCUCGACACUGCGUGGCAAAGUGGCUGUGGCUAGACUGCCUCUCUGGAUUCCUCGUCACUCAGCAGGGCUUCUCUGAGAGAAAUGCC | 0.06
9 | UACGUAGGUGGUUUUCCCCUGAUAGUGCUAAGGGGGCCUGGAAGUUUGGACUGGGCAGUGCUCAGCACAGCGUGGCAAAGUGGCUGUGGCUAGACUGCCUCUCUGGAUUCCUCGUCACUCAGCAGGGCAACUCUGAGAGAAAUGCC | 0.05
10 | UACGUAGGUGGUUUUCCCCUGAUAGUGCUAAGGGGGCCUGGAAGUUUGGACUGGGCAGUGCUCAACACAGCGUGGCAAGGUGGCAGUGGCUAGACUGCCUCUCUGGAUUCCUCGUCACUCAGCAGGGCAUCUCUGUGAGAAAUGCC | 0.08
11 | UACGUAGGUGGUUUUCCCCUGAUAGUGCUAAGGGGGCCUGGAAGUUUGGACUGGGCAGUGCUCAACACAGCGUGGCAAGGUGGCUGUGGCUAGACUGCCUCUCUGGAUUCCUCGUCACACAGCAGGGCAUCUCUGAGAGAAAUGCC | 0.79
12 | UACGUAGGUGGUUUUCCCCUGAUAGUGCUAAGGGGGCCUGGAAGUUUGGACUGGGCAGUGCUCAACACAGCGUGGCAAAGUGGCUGUGGCUGGACCGCCUCUCUGGAUUCCUCGUCACUCAGCAGGGCAUCUCUGAGAGAAACGCC | 0.14
13 | UACGUAGGUGGUUUUCCCCUGAUAGUGCUAAGGGGGCCUGGAAGUUUGGACUGGGCAGUGCUCAACACAGCGUGGCAAAGUGGCUGUGGCUAGGCUGCCUCUCUGAAUCCCUCGUCACUCAGCAGGGCAUCUCUGAGAGAAAUGCC | 2.47
14 | UACGUAGGUGGUUUUCCCCUGAUAGUGCUAAGGGGGCCUGGAAGUUUGGACUGGGCAGUGCUCAACACAGCGUGGCAAAGUGGCUGUGGCUAGAUUGCCUCUCUGGAUUCCUCGUCACUCAGCAGGGCAUCUCUGAGAGGAAUGCC | 0.11
15 | UACGUAGGUGGUUUUCCCCUGAUAGUGCUAAGGGGGCCUGGAAGUUUGGACUGGGCAGUACUCAACACAGCGUGGCAAAGUGGCUGUGGCUAGACUGCCUCCCCGGAUUCCUCGUCGCUCAGCAGGGCAUCUCUGAGAGAAAUGCC | 0.11
16 | UACGUAGGUGGUUUUCCCCUGAUAGUGCUAAGGGGGCCUGGAAGUUUGGACUGGGCAGUGCUCAACACAACGUGGCAAAGUGGCUGUGGCUAGACUGCCUCUCUGGACUCCUCGUCACUCAGCAGGGCAUCUCUGAGAGAAAUGCC | 0.2
17 | UACGUAGGUGGUUUUCCCCUGAUAGUGCUAAGGGGGCCUGGAAGUUUGGACUGGGCAGUGCUCAACACAGCGUGGCAAAGUGGCUAUGGCUAGACUGCCUCUCUGGAUUCCUCGUCACCCAGCAGGGCAUCUCUGAGAGAAAUGCC | 0.07
18 | UACGUAGGUGGUUUUCCCCUGAUAGUGCUAAGGGGGCCUGGAAGUUUGGACUGGGCAGUGCCCAACACAGCGUGGCAAAGCAGCUGUGGCUUGACCGCCUCUCUGGAUUCCUCGUCACUCAGCAGGGCAUCUCUGAGAGAAAUGCC | 0
19 | UACGUAGGUGGUUUUCCCCUGAUAGUGCUAAGGGGGCCUGGAAGUUUGGACUGGGCAGUGCCCAACACAGCGUGGCAAAGUGGCAGUGGCUAGACUGCCUCUCUGGAUUCCUCGUCACUCAGCAGGGCAUCUCUGAGAGAAAUACC | 0.09
20 | UACGUAGGUGGUUUUCCCCUGAUAGUGCUAAGGGGGCCUGGAAGUUUGGACUGGGCAGUGCUCAACACAGCGAGGCUAAGUGGCUGAGGCUAGACUGCCUCUCUGGAUUCCUCGUCACACAGCAGGGCACCUCUGAGAGAAAUGCC | 0.05
